Paper PMC10512297, “The Penicillium chrysogenum tom1 Gene a Major Target of Transcription Factor MAT1-1-1 Encodes a Nuclear Protein Involved in Sporulation”
No constants are given. Whether binding was seen depends on the method and setting. Some results given as binding are weak or reduced against the parent protein; the word gives no strength.

T1: N-terminus of MAT1-2-1 (1-131 aa; MAT2-Nt) (Penicillium chrysogenum) (UniProt B1GVC0)
T1 sequence: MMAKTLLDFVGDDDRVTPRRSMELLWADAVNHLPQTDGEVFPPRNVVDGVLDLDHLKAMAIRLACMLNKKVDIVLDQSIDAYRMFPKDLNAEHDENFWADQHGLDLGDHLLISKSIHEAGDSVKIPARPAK

T2: N-terminus of MAT1-1-1 (1-118 aa; MAT1-Nt) (Penicillium chrysogenum) (UniProt B1GVB9)
T2 sequence: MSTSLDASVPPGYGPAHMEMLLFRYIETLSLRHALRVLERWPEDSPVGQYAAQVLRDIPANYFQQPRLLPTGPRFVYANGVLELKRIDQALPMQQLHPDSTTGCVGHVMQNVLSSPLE

T3: fragment spanning N-terminus and DNA-binding domain of MAT1-1-1 (1-220 aa; MAT1-NtBD) (Penicillium chrysogenum) (UniProt B1GVB9)
T3 sequence: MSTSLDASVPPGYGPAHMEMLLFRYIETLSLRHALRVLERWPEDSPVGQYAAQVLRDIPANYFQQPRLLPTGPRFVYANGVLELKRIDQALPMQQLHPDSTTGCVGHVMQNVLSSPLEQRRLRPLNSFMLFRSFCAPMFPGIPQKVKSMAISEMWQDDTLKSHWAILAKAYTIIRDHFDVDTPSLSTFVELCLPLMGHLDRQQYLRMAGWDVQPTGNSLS

B1: full-length MAT1-2-1 (1-303 aa; MAT2) (protein, UniProt B1GVC0 1-303)
chain: MMAKTLLDFVGDDDRVTPRRSMELLWADAVNHLPQTDGEVFPPRNVVDGVLDLDHLKAMAIRLACMLNKKVDIVLDQSIDAYRMFPKDLNAEHDENFWADQHGLDLGDHLLISKSIHEAGDSVKIPARPAKVPRPPNCFILYRQANHHLVKDANPGVSNNEISRILGARWNNESPEVREQFTHLADELKKEHAIKHPDYQYAPRRPSERKRRTPRSRANCLPFVQADSHYEDMFDDADFEDRTISIDDHFITELNDNGLLFGPNGVEPLSPPFTHEECFEMSNDLTSGNSLASMEFLPMNSVF
B2: N-terminus of MAT1-2-1 (1-131 aa; MAT2-Nt) (domain or fragment, UniProt B1GVC0 1-131)
chain: T1 sequence
B3: fragment spanning N-terminus and DNA-binding domain of MAT1-1-1 (1-220 aa; MAT1-NtBD) (domain or fragment, UniProt B1GVB9 1-220)
chain: T3 sequence
B4: MAT1-1-1 polypeptide comprising only the DNA-binding domain and the C-terminus (109-342 aa; MAT1-CtBD) (domain or fragment, UniProt B1GVB9 109-342)
chain: MQNVLSSPLEQRRLRPLNSFMLFRSFCAPMFPGIPQKVKSMAISEMWQDDTLKSHWAILAKAYTIIRDHFDVDTPSLSTFVELCLPLMGHLDRQQYLRMAGWDVQPTGNSLSLRKIGLSNLASLSVPAIAVDQVVKHCIDNNYAQIRNEEWDKHILENGQVFAVDPAFSATVRDPQNWVFNNVPQWPIEEFEVDEMYSSLDTERDLGLPVIYDPNKNPSVAATMANLDRIFGHN

Experiments:
Experiment in all cases: two-hybrid; Gal4 AD fusions (pGADT7, prey, PJ69-4a) mated with Gal4 BD fusions (pGBKT7, bait, PJ69-4α); growth on SD-Leu-Trp-His-Ade and blue colour on X-α-Gal
[1] = target: T1, N-terminus of MAT1-2-1 (1-131 aa; MAT2-Nt) (Penicillium chrysogenum)
[2] = target: T2, N-terminus of MAT1-1-1 (1-118 aa; MAT1-Nt) (Penicillium chrysogenum)
[3] = target: T3, fragment spanning N-terminus and DNA-binding domain of MAT1-1-1 (1-220 aa; MAT1-NtBD) (Penicillium chrysogenum)

binding [1]	binding [2]	binding [3]	Binder
binds	binds		B1
	binds		B2
	binds		B3
no binding	no binding	no binding	B4
